This is one part of the list. Values were computed here from the reads of four pooled replicates and scatter widely.

The target of the assay is T1, Pho4 (S. cerevisiae) (UniProt P07270).
T1 sequence: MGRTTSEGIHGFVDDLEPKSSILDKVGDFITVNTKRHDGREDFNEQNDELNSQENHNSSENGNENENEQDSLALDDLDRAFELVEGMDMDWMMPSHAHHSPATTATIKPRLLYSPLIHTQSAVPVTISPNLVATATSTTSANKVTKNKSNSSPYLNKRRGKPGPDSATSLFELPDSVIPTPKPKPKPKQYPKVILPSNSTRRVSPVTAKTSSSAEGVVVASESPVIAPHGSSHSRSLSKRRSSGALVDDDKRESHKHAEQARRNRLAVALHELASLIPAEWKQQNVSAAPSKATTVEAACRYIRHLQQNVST
Briefly: relative binding free energy (BET-seq); higher = weaker binding. Particulars: reference: library average.
For ATTTACACGTGGCGAT, the “relative binding free energy” value was 0.28 kcal/mol.

As to GTTAGCACGTGTGATA, the “relative binding free energy” value came to 0.01 kcal/mol.

On to TTTAGCACGTGCGATT, for which the “relative binding free energy” value was -0.11 kcal/mol.

TAACGCACGTGAGTTG: the “relative binding free energy” value is 0.14 kcal/mol.

Turning to TTTCGCACGTGTGCGA, the “relative binding free energy” value came out at 0.03 kcal/mol.

In the case of CTGTTCACGTGAGTGT, the “relative binding free energy” value was 0.41 kcal/mol.

On to TGGGTCACGTGGTTCA, for which the “relative binding free energy” value was 0.19 kcal/mol.

In the case of CGGGCCACGTGGGGTG, the “relative binding free energy” value is -0.35 kcal/mol.

Consider ACTGGCACGTGGGGTG, for which the “relative binding free energy” value is -0.34 kcal/mol.

Take AGTTTCACGTGTTATG: the “relative binding free energy” value turned out to be 0.28 kcal/mol.

For the sequence TGTAACACGTGGTACG, the “relative binding free energy” value is -0.07 kcal/mol.

TATTGCACGTGTGTAC: the “relative binding free energy” value was -0.05 kcal/mol.

Regarding ATATACACGTGAAGGG, the “relative binding free energy” value turned out to be 0.19 kcal/mol.

On to GTGCTCACGTGAAGGT, for which the “relative binding free energy” value worked out at 0.27 kcal/mol.

In the case of TTGTCCACGTGTAGGG, the “relative binding free energy” value was -0.03 kcal/mol.

As for GCAGTCACGTGTAGTT, the “relative binding free energy” value amounted to 0.13 kcal/mol.

As for GTTGTCACGTGTTGCC, the “relative binding free energy” value is 0.11 kcal/mol.

Take GTAGTCACGTGGATAA: the “relative binding free energy” value was found to be 0.19 kcal/mol.

Turning to AGTTGCACGTGGTGCG, the “relative binding free energy” value was -0.1 kcal/mol.

Turning to TTTGGCACGTGGGGGG, the “relative binding free energy” value was -0.16 kcal/mol.

On to TAATTCACGTGAATTT, for which the “relative binding free energy” value was 0.36 kcal/mol.

On to GGGACCACGTGCGGGT, for which the “relative binding free energy” value was -0.27 kcal/mol.

On to ATTGACACGTGATGGT, for which the “relative binding free energy” value came to 0.14 kcal/mol.

TTGCTCACGTGTGATG: the “relative binding free energy” value turned out to be 0.27 kcal/mol.

In the case of GGTAACACGTGGGGAA, the “relative binding free energy” value was -0.1 kcal/mol.

With AACTTCACGTGGGTTT, the “relative binding free energy” value amounted to 0.21 kcal/mol.

Consider ATTCGCACGTGGTTGA, for which the “relative binding free energy” value is -0.03 kcal/mol.

With TAGATCACGTGTAGGC, the “relative binding free energy” value is 0.22 kcal/mol.

GATAGCACGTGAGGCG: the “relative binding free energy” value was 0.19 kcal/mol.

On to GGTTTCACGTGGTGTG, for which the “relative binding free energy” value stood at 0.33 kcal/mol.

For the sequence GGTTACACGTGCTTTA, the “relative binding free energy” value worked out at 0.24 kcal/mol.

With CAGTGCACGTGGTTGA, the “relative binding free energy” value is 0.01 kcal/mol.

Take TGTGGCACGTGGCTTT: the “relative binding free energy” value is -0.08 kcal/mol.

As for TGTTTCACGTGTATTG, the “relative binding free energy” value was 0.3 kcal/mol.

Consider GTATACACGTGTCTTG, for which the “relative binding free energy” value is -0.03 kcal/mol.

As to CGAAGCACGTGGGGGC, the “relative binding free energy” value is -0.18 kcal/mol.

In the case of TGGATCACGTGTATAG, the “relative binding free energy” value was found to be 0 kcal/mol.

Turning to AATCTCACGTGTTATT, the “relative binding free energy” value stood at 0.14 kcal/mol.

With AGCATCACGTGTTTAA, the “relative binding free energy” value was 0.26 kcal/mol.

Take CAGGTCACGTGTTTTG: the “relative binding free energy” value was found to be 0.15 kcal/mol.

Turning to GATCTCACGTGTTGGG, the “relative binding free energy” value came to 0.25 kcal/mol.

Regarding GTTATCACGTGTTAGG, the “relative binding free energy” value amounted to 0.22 kcal/mol.

For the sequence CGTTTCACGTGGTAAT, the “relative binding free energy” value came to 0.21 kcal/mol.

On to AGCATCACGTGATGTG, for which the “relative binding free energy” value amounted to 0.18 kcal/mol.

With TAAATCACGTGGAAAG, the “relative binding free energy” value turned out to be 0.47 kcal/mol.

On to GGGTACACGTGGGTGA, for which the “relative binding free energy” value was -0.02 kcal/mol.

For TATGGCACGTGGAATT, the “relative binding free energy” value was 0.05 kcal/mol.

Take GAGGGCACGTGGAGAT: the “relative binding free energy” value is -0.09 kcal/mol.

GGTACCACGTGGGTTG: the “relative binding free energy” value is -0.08 kcal/mol.

With GATTACACGTGAGTTT, the “relative binding free energy” value was 0.34 kcal/mol.

As for TAACTCACGTGGTTGG, the “relative binding free energy” value came out at 0.11 kcal/mol.

For GAGTTCACGTGTGGTT, the “relative binding free energy” value turned out to be 0.42 kcal/mol.

TGAGACACGTGGGGGA: the “relative binding free energy” value worked out at 0 kcal/mol.

In the case of GTTTACACGTGAGCTA, the “relative binding free energy” value was 0.45 kcal/mol.

In the case of CAGAGCACGTGTATGG, the “relative binding free energy” value was -0.08 kcal/mol.

Turning to TTTAACACGTGAGAAT, the “relative binding free energy” value worked out at 0.24 kcal/mol.

On to ATTATCACGTGAATAG, for which the “relative binding free energy” value turned out to be 0.38 kcal/mol.

As for GTTCTCACGTGTGGTT, the “relative binding free energy” value turned out to be 0.32 kcal/mol.

Regarding CTCGGCACGTGGCGGG, the “relative binding free energy” value is -0.17 kcal/mol.

For CTTCGCACGTGTGGTT, the “relative binding free energy” value was -0.03 kcal/mol.

Take GTGGGCACGTGTTGGG: the “relative binding free energy” value was -0.01 kcal/mol.

In the case of TCAGGCACGTGTTAGT, the “relative binding free energy” value is -0.15 kcal/mol.

Take TTGTGCACGTGCGGTT: the “relative binding free energy” value is -0.12 kcal/mol.

For CGGAGCACGTGTATTG, the “relative binding free energy” value was -0.08 kcal/mol.

With TGCGGCACGTGTTATG, the “relative binding free energy” value was -0.06 kcal/mol.

With CACTTCACGTGGGTGT, the “relative binding free energy” value worked out at 0.09 kcal/mol.

TTTACCACGTGTTTAG: the “relative binding free energy” value is -0.09 kcal/mol.

Turning to GGATGCACGTGGCTGT, the “relative binding free energy” value was -0.15 kcal/mol.

With ATTGTCACGTGGAGGC, the “relative binding free energy” value worked out at 0.18 kcal/mol.

For CGTAACACGTGTAGTT, the “relative binding free energy” value stood at 0.08 kcal/mol.

For TATATCACGTGTTTCA, the “relative binding free energy” value was found to be 0.03 kcal/mol.

In the case of GGTGGCACGTGCATCG, the “relative binding free energy” value was -0.16 kcal/mol.

On to TTTAACACGTGGGTGC, for which the “relative binding free energy” value is -0.1 kcal/mol.

Regarding AGGTTCACGTGTGCGT, the “relative binding free energy” value was found to be 0.19 kcal/mol.

As to GAAGGCACGTGGCAGG, the “relative binding free energy” value is -0.1 kcal/mol.

Consider TCTTTCACGTGTTTGG, for which the “relative binding free energy” value worked out at 0.26 kcal/mol.

With GTGGTCACGTGAGTAC, the “relative binding free energy” value is 0.2 kcal/mol.

Take ATGTGCACGTGGTGGA: the “relative binding free energy” value is -0.11 kcal/mol.

Take TCAGTCACGTGGGACG: the “relative binding free energy” value is 0.16 kcal/mol.

With GGCTTCACGTGAATTG, the “relative binding free energy” value amounted to 0.45 kcal/mol.

In the case of CGTGGCACGTGAGTAT, the “relative binding free energy” value worked out at 0.04 kcal/mol.

Consider GTCAGCACGTGTTTTG, for which the “relative binding free energy” value was 0 kcal/mol.

As to AATTGCACGTGGAGGC, the “relative binding free energy” value was -0.01 kcal/mol.

Consider GTTATCACGTGAAGGC, for which the “relative binding free energy” value stood at 0.34 kcal/mol.

For the sequence GCGTGCACGTGGGTTT, the “relative binding free energy” value was -0.06 kcal/mol.

In the case of TAATTCACGTGTCTGT, the “relative binding free energy” value turned out to be 0.31 kcal/mol.

Take TCGGTCACGTGCGTCT: the “relative binding free energy” value came to 0.28 kcal/mol.

For the sequence AACTGCACGTGGATGT, the “relative binding free energy” value amounted to 0.07 kcal/mol.

In the case of TGTAGCACGTGGGAAA, the “relative binding free energy” value was -0.08 kcal/mol.

In the case of TTTGTCACGTGGCGAA, the “relative binding free energy” value was 0.15 kcal/mol.

In the case of GCAGGCACGTGTGTGT, the “relative binding free energy” value is -0.14 kcal/mol.

Turning to AAATGCACGTGTGGGA, the “relative binding free energy” value is -0.07 kcal/mol.

Take TAGGTCACGTGATAGT: the “relative binding free energy” value worked out at 0.23 kcal/mol.

GACTTCACGTGGGTGG: the “relative binding free energy” value turned out to be 0.27 kcal/mol.

In the case of GTATTCACGTGTACAT, the “relative binding free energy” value came out at 0.38 kcal/mol.

On to GTGTTCACGTGATTGG, for which the “relative binding free energy” value was 0.46 kcal/mol.

With TTTACCACGTGATTGT, the “relative binding free energy” value stood at 0.12 kcal/mol.

On to GAGTACACGTGGATGG, for which the “relative binding free energy” value is 0.15 kcal/mol.

As to TCTTGCACGTGAAGGT, the “relative binding free energy” value was 0.28 kcal/mol.

Turning to TGGTTCACGTGAGGTT, the “relative binding free energy” value amounted to 0.35 kcal/mol.

In the case of GAGGGCACGTGGTTAT, the “relative binding free energy” value was -0.04 kcal/mol.

Regarding GCTTGCACGTGGGCGT, the “relative binding free energy” value is -0.17 kcal/mol.

In the case of GTAGGCACGTGAGAGG, the “relative binding free energy” value came out at 0.27 kcal/mol.

Turning to GTCGTCACGTGCGTGG, the “relative binding free energy” value is -0.01 kcal/mol.

Take TCGGTCACGTGAGTGG: the “relative binding free energy” value came to 0.26 kcal/mol.

Consider ATTTTCACGTGCGTGT, for which the “relative binding free energy” value is 0.26 kcal/mol.

Turning to AGTTTCACGTGATCTT, the “relative binding free energy” value came to 0.19 kcal/mol.

AGTCTCACGTGGCTTG: the “relative binding free energy” value is 0.16 kcal/mol.

As for TTGTTCACGTGATGAT, the “relative binding free energy” value is 0.46 kcal/mol.

In the case of TTTCGCACGTGCGTTT, the “relative binding free energy” value was -0.06 kcal/mol.

In the case of TGTATCACGTGTTAAG, the “relative binding free energy” value stood at 0.1 kcal/mol.

As for AGGCGCACGTGTAGTG, the “relative binding free energy” value is -0.07 kcal/mol.

In the case of TTGTGCACGTGAGCGT, the “relative binding free energy” value amounted to 0.11 kcal/mol.

On to GCTTTCACGTGGAAAG, for which the “relative binding free energy” value turned out to be 0.43 kcal/mol.

In the case of TTAGTCACGTGTTGGC, the “relative binding free energy” value is 0.06 kcal/mol.

The values are drawn from the BET-seq Pho4 binding data (Le et al. 2018).
